# Some of the results follow.
# B1: MpAFP NterminalRI GFP (Marinomonas primoryensis) (protein)
# chain: MSDNQFPFATLGNAIGFITKLDGSVTVQSIDGQERVLKLGDPIFFGETVLTGGSGSVTIAFVDGTDVVIGGDSIVEMTDEIYNTGDNEDLVADSSSEIDALQNAILAGDDPTLIQDAPAAGNTLADQQRVDVSIERNDNSAQAGFGVDTQSSLPTYGYDTDNGNGGQATEREYSAPSLSRTLNQSPLLEHHHHHH
# Experiments:
# Test in all cases: glycan array binding signal (z-score within array); higher = stronger binding
# Settings in all cases: glycan notation: IUPAC condensed, linker removed
# [1] = biological target: Neu5Ac(a2-3)Gal(b1-4)GlcNAc(b1-3)[Neu5Ac(a2-3)Gal(b1-4)GlcNAc(b1-6)]GalNAc
# Procedure, shortened: (§1)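 The binding signal is a Z-score computed within each array. Data were drawn from 3228 arrays in the Consortium for Functional Glycomics database, restricted to those with a known protein sequence. Scores were averaged over arrays of the same protein sequence at different concentrations or buffers, and over linkers, and negative values can be taken as non-binding.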
# [2] = biological target: Neu5Ac(a2-3)Gal(b1-4)GlcNAc(b1-6)GalNAc
# Procedure, shortened: as §1
# [3] = biological target: Neu5Ac(a2-3)Gal(b1-4)GlcNAc(b1-6)[Gal(b1-3)]GalNAc
# Procedure, shortened: as §1
# [4] = biological target: Neu5Ac(a2-3)Gal(b1-4)GlcNAc(b1-6)[Neu5Ac(a2-3)Gal(b1-3)]GalNAc
# Procedure, shortened: as §1
# [5] = biological target: Neu5Ac(a2-3)Gal(b1-4)GlcNAc6S
# Procedure, shortened: as §1
# [6] = biological target: Neu5Ac(a2-3)Gal(b1-4)[Fuc(a1-3)]GlcNAc
# Procedure, shortened: as §1
# [7] = biological target: Neu5Ac(a2-3)Gal(b1-4)[Fuc(a1-3)]GlcNAc(b1-2)Man
# Procedure, shortened: as §1
# [8] = biological target: Neu5Ac(a2-3)Gal(b1-4)[Fuc(a1-3)]GlcNAc(b1-3)Gal
# Procedure, shortened: as §1
# [9] = biological target: Neu5Ac(a2-3)Gal(b1-4)[Fuc(a1-3)]GlcNAc(b1-3)Gal(b1-4)GlcNAc
# Procedure, shortened: as §1
# [10] = biological target: Neu5Ac(a2-3)Gal(b1-4)[Fuc(a1-3)]GlcNAc(b1-3)Gal(b1-4)[Fuc(a1-3)]GlcNAc(b1-3)Gal(b1-4)[Fuc(a1-3)]GlcNAc
# Procedure, shortened: as §1
# [11] = biological target: Neu5Ac(a2-3)Gal(b1-4)[Fuc(a1-3)]GlcNAc(b1-3)GalNAc
# Procedure, shortened: as §1
# [12] = biological target: Neu5Ac(a2-3)Gal(b1-4)[Fuc(a1-3)]GlcNAc(b1-6)[Gal(b1-3)]GalNAc
# Procedure, shortened: as §1
# [13] = biological target: Neu5Ac(a2-3)Gal(b1-4)[Fuc(a1-3)]GlcNAc(b1-6)[Neu5Ac(a2-3)Gal(b1-3)]GalNAc
# Procedure, shortened: as §1
# [14] = biological target: Neu5Ac(a2-3)Gal(b1-4)[Fuc(a1-3)]GlcNAc6S
# Procedure, shortened: as §1
# [15] = biological target: Neu5Ac(a2-3)Gal6S(b1-4)GlcNAc
# Procedure, shortened: as §1
# [16] = biological target: Neu5Ac(a2-3)Gal6S(b1-4)[Fuc(a1-3)]GlcNAc
# Procedure, shortened: as §1
# Neu5Ac(a2-3)GalNAc = biological target: Neu5Ac(a2-3)GalNAc
# Procedure, shortened: as §1
# [17] = biological target: Neu5Ac(a2-3)GalNAc(b1-4)GlcNAc
# Procedure, shortened: as §1
# [18] = biological target: Neu5Ac(a2-3)[GalNAc(b1-4)]Gal(b1-4)Glc
# Procedure, shortened: as §1
# [19] = biological target: Neu5Ac(a2-3)[GalNAc(b1-4)]Gal(b1-4)GlcNAc
# Procedure, shortened: as §1
# [20] = biological target: Neu5Ac(a2-3)[GalNAc(b1-4)]Gal(b1-4)GlcNAc(b1-3)GalNAc
# Procedure, shortened: as §1
# [21] = biological target: Neu5Ac(a2-3)[Neu5Ac(a2-6)]GalNAc
# Procedure, shortened: as §1
# Neu5Ac(a2-6)Gal = biological target: Neu5Ac(a2-6)Gal
# Procedure, shortened: as §1
# [22] = biological target: Neu5Ac(a2-6)Gal(b1-3)GlcNAc(b1-3)[Gal(b1-4)GlcNAc(b1-6)]Gal(b1-4)Glc
# Procedure, shortened: as §1
# Neu5Ac(a2-6)Gal(b1-4)Glc = biological target: Neu5Ac(a2-6)Gal(b1-4)Glc
# Procedure, shortened: as §1
# [23] = biological target: Neu5Ac(a2-6)Gal(b1-4)GlcNAc
# Procedure, shortened: as §1
# [24] = biological target: Neu5Ac(a2-6)Gal(b1-4)GlcNAc(b1-2)Man
# Procedure, shortened: as §1
# [25] = biological target: Neu5Ac(a2-6)Gal(b1-4)GlcNAc(b1-2)Man(a1-3)Man(b1-4)GlcNAc(b1-4)GlcNAc
# Procedure, shortened: as §1
# [26] = biological target: Neu5Ac(a2-6)Gal(b1-4)GlcNAc(b1-2)Man(a1-3)[Gal(b1-4)GlcNAc(b1-2)Man(a1-6)]Man(b1-4)GlcNAc(b1-4)GlcNAc
# Procedure, shortened: as §1
# [27] = biological target: Neu5Ac(a2-6)Gal(b1-4)GlcNAc(b1-2)Man(a1-3)[GlcNAc(b1-4)][Neu5Ac(a2-6)Gal(b1-4)GlcNAc(b1-2)Man(a1-6)]Man(b1-4)GlcNAc(b1-4)GlcNAc
# Procedure, shortened: as §1
# [28] = biological target: Neu5Ac(a2-6)Gal(b1-4)GlcNAc(b1-2)Man(a1-3)[Man(a1-6)]Man(b1-4)GlcNAc(b1-4)GlcNAc
# Procedure, shortened: as §1
binder,measurement,setting,value
B1,glycan array binding signal (z-score),[1],-0.364
same,glycan array binding signal (z-score),[2],-0.152
same,glycan array binding signal (z-score),[3],3.31
same,glycan array binding signal (z-score),[4],-0.544
same,glycan array binding signal (z-score),[5],-0.5
same,glycan array binding signal (z-score),[6],-0.644
same,glycan array binding signal (z-score),[7],-0.506
same,glycan array binding signal (z-score),[8],-0.343
same,glycan array binding signal (z-score),[9],0.865
same,glycan array binding signal (z-score),[10],-0.065
same,glycan array binding signal (z-score),[11],1.37
same,glycan array binding signal (z-score),[12],0.24
same,glycan array binding signal (z-score),[13],0.501
same,glycan array binding signal (z-score),[14],-0.574
same,glycan array binding signal (z-score),[15],-0.608
same,glycan array binding signal (z-score),[16],-0.477
same,glycan array binding signal (z-score),Neu5Ac(a2-3)GalNAc,0.705
same,glycan array binding signal (z-score),[17],-0.287
same,glycan array binding signal (z-score),[18],-0.63
same,glycan array binding signal (z-score),[19],-0.566
same,glycan array binding signal (z-score),[20],-0.498
same,glycan array binding signal (z-score),[21],1.27
same,glycan array binding signal (z-score),Neu5Ac(a2-6)Gal,-0.417
same,glycan array binding signal (z-score),[22],-0.287
same,glycan array binding signal (z-score),Neu5Ac(a2-6)Gal(b1-4)Glc,-0.491
same,glycan array binding signal (z-score),[23],-0.56
same,glycan array binding signal (z-score),[24],-0.271
same,glycan array binding signal (z-score),[25],-0.086
same,glycan array binding signal (z-score),[26],0.187
same,glycan array binding signal (z-score),[27],-0.202
same,glycan array binding signal (z-score),[28],-0.277

# Reference: the supplement of paper PMC8728848
